Measurements published in patent US20090291910A1, “AGENT AND FOOD FOR PREVENTING/IMPROVING FUNCTIONAL DIGESTIVE DISORDER” (AJINOMOTO CO., INC, priority 2004, published 2009).

Tests used:
[1] = test system: vagus nerve gastric branches afferent activity
[2] = test system: vagus nerve gastric branches afferent activity; assay: activation of vagus nerve by intragastric MSG when mucous membrane serotonin is depleted or NO synthesis is inhibited; assay type: in vivo, SD (IGS) rats
Method: To study the activation of vagus nerve by intragastric administration of monosodium glutamate when mucous membrane serotonin was depleted or NO synthesis was inhibited, the following experiments (A) and (B) were performed.
SD (IGS) rats (male, 8- to 10-week-old: CHARLES RIVER LABORATORIES JAPAN, INC.) were use for the experiment. After fasting for 15-17 hr, the rats were subjected to laparotomy under urethane anesthesia (1 g/kg, i.p.) to expose ventral vagus nerve gastric branches, and the afferent activity was recorded according to the method (Niijima A., et al., Physiol Behav. 1991 May; 49(5): 1025-8.).
(A) P-chlorophenylalanine (PCPA) was dissolved in 5% CMC solution, and administered at 200 mg/kg/rat twice a day for 2 days (intraperitoneal administration). The final administration of PCPA was performed 15 min before the administration of MSG aqueous solution (150 mM; intragastric administration). (B) NG-nitro-L-arginine methyl ester (L-NAME) was dissolved in saline, and administered at a rate of 10 mg/kg/rat from the cannula dwelled in the femoral vein 15 min before administration of MSG aqueous solution.

Nc1nc2c(ncn2[C@@H]2O[C@H](COP(=O)([O-])[O-])[C@@H](O)[C@H]2O)c(=O)[nH]1.[Na+].[Na+] [GMP, sodium guanylate]
activation of vagus nerve gastric branches ([1]; GMP 10, 30, 60 mM aqueous solution intragastric 2 mL/rat, FIG. 1C): dose-dependently activates vagus nerve gastric branches

N[C@@H](CCC(=O)O)C(=O)[O-].[Na+] [monosodium glutamate]
activation of vagus nerve via 5-HT3 receptor at the terminal of the vagus nerve gastric branches ([1]; MSG 150 mM aqueous solution intragastric 2 mL/rat): activates vagus nerve

COC(=O)[C@@H](N)CCCNC(=N)N[N+](=O)[O-] [L-NAME, NG-nitro-L-arginine methyl ester]
effect of pretreatment on enhancement of nervous activity after intragastric MSG ([2]; L-NAME 10 mg/kg/rat femoral vein 15 min before MSG, FIG. 2B): same phenomenon as in (A)

N[C@@H](Cc1ccc(Cl)cc1)C(=O)O (racemic) [PCPA, P-chlorophenylalanine]
effect of pretreatment on enhancement of nervous activity after intragastric MSG ([2]; PCPA 200 mg/kg/rat i.p. twice a day for 2 days, MSG 150 mM, FIG. 2A): eliminates sustained enhancement of nervous activity
